Source: the supplement of paper PMC11417369
± gives the standard deviation of the averaged measurements. This is one part of the list.

The sequences below were run on PfAP2-EXP AP2 domain (GST-tagged) (assay: gcPBM binding intensity (ln(normalized median fluorescence intensity)); higher = stronger DNA binding).
How it was run: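 Binding intensity values are the highest Masliner-normalised natural-log median intensity among replicate spots of either probe orientation. The binding step lasted 1 h in 1× PBS with 1% milk, 0.2 mg/ml BSA, 0.5% salmon testes DNA and 0.03% Triton X-100, using GST-tagged P. falciparum DNA-binding domains expressed in E. coli on an Agilent 4 × 180k array of primer-extended double-stranded 36-bp intergenic genomic probes plus negative controls. Alexa488 anti-GST antibody and a 488 nm scan detected bound protein.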

Sequence	gcPBM binding intensity (ln)
GTATATAATTTATATTGTACGCATATTATTATCATT [XGTACX_site7277]	8.57 ± 0.25
AATATACAAATTACAAGTACAAATCAATATTATATG [XGTACX_site7521]	8.53 ± 0.28
AAAAAAAAAAAAAAAACACACAAACAAATGAATAAA [CACACA_site5769]	8.61 ± 0.4
TCATTTTACAGATGTGCATGTGAATCAATCTATTTA [TGCATGCA_site787]	8.69 ± 0.29
TGTAGTTTTTATTTATGTACGCATAACATAATTTAA [XGTACX_site104]	8.62 ± 0.36
ACATAAATAATAAAAACACACATATGTACCTATATA [CACACA_site6982]	8.65 ± 0.2
AAATTATTTCTTTGCGCATGTAGCTTTTATACTATT [TGCATGCA_site819]	9.24 ± 0.36
AATACATGCTAAAAACGTACACGTATAAAATTATAT [XGTACX_site3169]	8.62 ± 0.38
GGTGAAATTATTTCTACATGCAGAAATAATTAATTA [TGCATGCA_site194]	9.04 ± 0.18
TTTTTTTTTTTGGCTAGTACATATGTATTTAAAATG [XGTACX_site7770]	8.62 ± 0.42
AATTTAATATAATGCACACATAAAAAAAAAATCAAA [CACACA_site1]	8.57 ± 0.28
TGTTGTTCCAATTTTTGTACATAAAACATATATATA [XGTACX_site5719]	8.92 ± 0.37
AAAAAAAAAAATACTTGTACTTATATAATATATTAT [XGTACX_site8333]	8.16 ± 0.36
AAAAAAAAAAAAAATTGTACATTAAATTAAAAGAAA [XGTACX_site8708]	8.4 ± 0.45
AAGAAAATATAAAATGCACACTATAAATTGTATATA [CACACA_site7928]	8.59 ± 0.23
ATTAGTATATTTCTCTGTACTTACATTAAAATATAA [XGTACX_site2217]	8.49 ± 0.27
TTTTTATTTATATTTCATTGAAGTTAAATTATTTTA [XGTACX_negctrl_site575]	8.21 ± 0.46
TACATTCTAATAATTGCACACTGGTTATTAAAAGGA [CACACA_site1614]	8.4 ± 0.29
TTTTATCAATAAATTCGTACACATGAACTAGAGAGT [XGTACX_site5758]	8.78 ± 0.44
TCCTTAAAATATGGTTGTACGTACATCCTAGGTGTT [XGTACX_site7068]	8.73 ± 0.14
AATTTAATATTCATCTCTAAAGCTATAACAATTACT [CACACA_negctrl_site1079]	8.29 ± 0.4
TGTATTATATATGTGTGTACATATTTTTTTTTTTTT [XGTACX_site3351]	8.47 ± 0.34

Sequence	gcPBM binding intensity (ln)
ATATATATATATAAATGTACAGGCTTATCTCTTATT [XGTACX_site1828]	10.2 ± 0.12
TCTGAAAATTAGAAAAGTACAAAATGGTATAGGAAA [XGTACX_site4396]	8.87 ± 0.51
ATACAAATTTATATTTCACACATTATTATATACTTA [CACACA_site6034]	8.6 ± 0.21
AAATTATTTCAAATGTTGCACTAAAAATAAAATTAT [GTGCAC_site9460]	8.18 ± 0.18
CGCACACGCAGACACACACACACATATAAATAAATA [CACACA_site7101]	8.46 ± 0.49
AAAAAAAAGAAAAAAAAAAAAAAAAAAAAAAAAAAA [CACACA_negctrl_site489]	7.89 ± 0.24
ATATAATATTTATATGTACACACCTTAATCCTTAAA [CACACA_site3555]	8.46 ± 0.28
ATAAACGTTTTTGAAAGTACATATCATTCATTTGAT [XGTACX_site200]	8.52 ± 0.39
TTTTAACATATAAGTACACACATATAATCAATCATA [CACACA_site2325]	8.51 ± 0.25
TTTGTTCATATGAAATGTACAAAAAAAAAAAAAAAA [XGTACX_site8849]	8.27 ± 0.45
TTTTATCGTTTTTTTTTTTTTTTTTTTTTTTTTTTT [CACACA_negctrl_site1309]	9.06 ± 0.092
CCTTATAAATACTGCACACATAAAATATATATTATC [CACACA_site2806]	8.8 ± 0.28
ATGTAGAAGTAATGCACACATATGTATTTATATATA [CACACA_site5391]	8.84 ± 0.18
AAAAAAATTAATATGTCAGCACATATATACATACAT [GTGCAC_negctrl_site110]	8.3 ± 0.4
TATATATATAAAAAAGCACACATACATACATACATA [CACACA_site8196]	9.01 ± 0.16
TGAAAGAAGCATAAATGTACACACATATTTATATAT [XGTACX_site2645]	8.49 ± 0.38
GTGTTCTTGTTATACACACACATATATATATATATA [CACACA_site1032]	9.88 ± 0.77
TATTTATTGTGACACTTTTATTATTTTATGATAAAA [CACACA_negctrl_site37]	8.57 ± 0.34
GAGAAAAGGAAATAACGTACACATATGCATATCCAA [XGTACX_site5858]	8.9 ± 0.59
GAGAGGTCAGTTCACAGTACCCAGAAACTCTACGAG [XGTACX_site2559]	8.19 ± 0.6
GTAATATTTTATAGTAGTACATATTTTTATTATTTT [XGTACX_site3333]	8.4 ± 0.38
TTGTTCTTATTTCATTTTTATATGATATTTCATTAT [CACACA_negctrl_site1619]	8.76 ± 0.49

Sequence	gcPBM binding intensity (ln)
AATATTTATTTAATTTCACACAGGTCTTTTTTTTTT [CACACA_site5188]	8.38 ± 0.39
GACAAACAATATGAATGTACATAAAAATATAACTAA [XGTACX_site1167]	8.63 ± 0.62
TGAATATATAAATATGCACACTTCTATTATAAATAA [CACACA_site5796]	8.34 ± 0.15
TAACATATAAGTGTGTGTACGTACTGCGTATAATAT [XGTACX_site8597]	8.92 ± 0.34
TGAAGAATATTTTTCACACATATATATATATATATA [CACACA_site6080]	10.2 ± 0.38
ATATATATATATATTGCACACACAATTATTATTATT [CACACA_site8721]	10.1 ± 0.21
TATATATATAATTAAGCATGCTAGAAACCTTTGAAA [TGCATGCA_site489]	8.88 ± 0.61
TACAATCTAAAATACACACGCACACCGAAAAAAAAA [CACACA_site3520]	8.65 ± 0.53
ATATATATATATATATGTACATATTTTTGTTTGATG [XGTACX_site51]	10.2 ± 0.81
CAGATATTCATATAAACACACATACAAATTATGTAT [CACACA_site4258]	8.46 ± 0.33
AAATTATTTATATGTTGTACTTATCCATTTTTATAA [XGTACX_site7441]	8.61 ± 0.42
TAATTTTTTTTATTATGTACTTAATAAATGTTAATT [XGTACX_site365]	8.4 ± 0.31
TATATTTATAGACACACACACAAAAAAAAAAAAAAA [CACACA_site6818]	8.37 ± 0.31
TTTTTTTTTAATTATGCATGTAAATTATATATTATA [TGCATGCA_site335]	8.9 ± 0.042
AATAAACATATATGTACACACATATACATATATATA [CACACA_site2848]	8.45 ± 0.19
TATTTATAATTAAATACACACATATATTATATATTT [CACACA_site616]	8.19 ± 0.33
TATATTAATTTATATCAACACACAAAATCAATATAC [CACACA_site8518]	8.71 ± 0.39
TATACGCATATATAAACACACAAAAAAAAAAAAAAA [CACACA_site2026]	8.12 ± 0.45
TTAGCTACACGCTAATGTACACAAATACAAAGAAAA [XGTACX_site3993]	8.68 ± 0.45
ATAAAATATTATATATATATATATATATATATATAT [CACACA_negctrl_site215]	10.2 ± 0.36
AAGAATGTTATATTATGATGCTGTCTTTTTTTAAGA [CACACA_negctrl_site251]	8.23 ± 0.41
TGTTAATTAAAACATCATTAATATTATTAAAAATAC [XGTACX_negctrl_site509]	8.29 ± 0.3

Sequence	gcPBM binding intensity (ln)
TCTTTTTTTACTTTCTTTTTTTTTTTTTTTTTTTTT [XGTACX_negctrl_site610]	8.73 ± 0.13
CCTTTATAAAAAAGTAGTACACAATGAATTTATAAT [XGTACX_site5523]	8.62 ± 0.35
CAATACTAATTGTATACACACAAAAATATACCATAT [CACACA_site3326]	8.57 ± 0.38
AATTGATACCTTACATGTACATAATATATATAAATA [XGTACX_site321]	8.97 ± 0.47
GAACCATTTTTTGGTATACACACGTAATTATATAAT [CACACA_site8552]	8.56 ± 0.42
TTTTTACATACAAATTAACACACATATAGAAAAGAG [CACACA_site8570]	9.02 ± 0.34
TGGTAATACACATACACACACACATACACATATATA [CACACA_site7312]	8.7 ± 0.42
AATTGAAAAATCAGCACACACACAAATACATACATA [CACACA_site3232]	8.79 ± 0.54
GCTATATATTACAATCGTACAATATATATATATATA [XGTACX_site6730]	9.93 ± 0.35
ATATATATATATATTACACACATGTGCAATTAAAAT [CACACA_site1778]	9.87 ± 0.2
AATATAAGAATATATACACACATAAATACATACATA [CACACA_site4128]	8.6 ± 0.31
TCTTGTATACGGCATGCATGTTAGCACATACGGACA [TGCATGCA_site146]	9.55 ± 0.35
TGTTCCGAAGGTTGTACACACATAGAAATATACATA [CACACA_site3874]	8.88 ± 0.53
TGAATTCATAGCAGTTGTACATTGCATGAAGAAACG [XGTACX_site3312]	8.86 ± 0.3
TTTTTAAAACCTTACATACACACAAATATATATATA [CACACA_site678]	9.71 ± 0.2
AATACTTTTTATTTAGTGCATAAGAAAATATAAATC [GTGCAC_site9875]	8.7 ± 0.11
AAAAAAAAAAATTCGGTGCAATGTAATTAATGTAAA [GTGCAC_site9588]	8.59 ± 0.34
TATAAAATATGTATGAGGAATAAAATTAAAAAAAAA [TGCATGCA_negctrl_site178]	8.53 ± 0.4
TATATGTTTACTTAATGTACTTACATTTTTATAACA [XGTACX_site1100]	8.51 ± 0.36
AAAATTAACCGTAACACACACACATATATATATATA [CACACA_site3964]	10.1 ± 0.26
AAACAAAAAAACTACAGTACTTTTTTCAATTCCCCT [XGTACX_site7541]	8.57 ± 0.52
TTATTAATTTTTATTTTTAAATCACAAAAGATATAA [CACACA_negctrl_site787]	7.95 ± 0.44
